# Measurements taken from publication PMC4336329 (PLoS ONE, 2015).
# Hit rate of the full screen: of about 310,000 compounds, about 2,200 (0.71%) showed an effect of 50% or more. The effect is printed as a negative number. The list shows a part of the results.
# Target: human ether-à-go-go-related gene (hERG) potassium channel (human, UniProt Q12809)
# Test: primary screen, population patch clamp on CHO cells stably expressing hERG
# human ether-à-go-go-related gene (hERG) potassium channel, sequence (Q12809 whole entry, looked up): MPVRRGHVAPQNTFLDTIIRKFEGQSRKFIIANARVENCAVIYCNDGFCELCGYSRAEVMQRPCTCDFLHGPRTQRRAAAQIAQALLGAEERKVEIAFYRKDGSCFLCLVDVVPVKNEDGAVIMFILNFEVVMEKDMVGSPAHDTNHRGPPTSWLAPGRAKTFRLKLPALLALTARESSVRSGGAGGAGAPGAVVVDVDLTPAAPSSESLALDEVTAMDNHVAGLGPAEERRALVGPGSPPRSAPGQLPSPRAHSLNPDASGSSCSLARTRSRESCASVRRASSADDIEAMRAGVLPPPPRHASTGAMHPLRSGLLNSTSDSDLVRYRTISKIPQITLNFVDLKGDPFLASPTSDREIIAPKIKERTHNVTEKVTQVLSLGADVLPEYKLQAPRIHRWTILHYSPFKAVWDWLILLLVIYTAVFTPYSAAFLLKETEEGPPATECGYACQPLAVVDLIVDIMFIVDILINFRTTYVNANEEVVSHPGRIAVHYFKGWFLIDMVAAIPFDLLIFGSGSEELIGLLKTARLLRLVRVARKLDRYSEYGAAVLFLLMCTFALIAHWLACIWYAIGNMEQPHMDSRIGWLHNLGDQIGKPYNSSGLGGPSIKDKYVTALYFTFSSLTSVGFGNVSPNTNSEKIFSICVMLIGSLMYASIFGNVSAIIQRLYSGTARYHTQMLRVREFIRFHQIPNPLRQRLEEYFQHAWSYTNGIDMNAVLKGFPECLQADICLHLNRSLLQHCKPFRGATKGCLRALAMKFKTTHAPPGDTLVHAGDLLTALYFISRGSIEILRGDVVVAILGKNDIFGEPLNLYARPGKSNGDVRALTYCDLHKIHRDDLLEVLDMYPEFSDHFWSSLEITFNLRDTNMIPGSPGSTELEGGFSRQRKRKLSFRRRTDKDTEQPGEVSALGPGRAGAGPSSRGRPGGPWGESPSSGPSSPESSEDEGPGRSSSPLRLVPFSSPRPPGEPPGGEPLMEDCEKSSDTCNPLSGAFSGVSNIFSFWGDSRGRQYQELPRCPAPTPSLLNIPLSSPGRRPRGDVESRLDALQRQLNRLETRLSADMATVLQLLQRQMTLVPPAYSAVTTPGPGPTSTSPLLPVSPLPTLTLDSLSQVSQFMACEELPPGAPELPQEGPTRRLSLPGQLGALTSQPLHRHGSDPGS
row,Structure (SMILES),"hERG current change (%, negative = inhibition) at 1uM [%]"
1,CN1C(=S)SC(C)(C)C1N(O)C(=O)Nc1ccc(Cl)cc1 (stereo not shown),6.42
2,CCN(CC)c1ccc(C(=O)Nn2cnc3ccccc3c2=O)cc1,9.56
3,C=CCOC(=O)C1=C(C)OC(N)=C(C#N)C1c1ccccc1F (stereo not shown),-3.19
4,CC1CC(C)CN(S(=O)(=O)c2ccc(C(=O)OCC(=O)NCCN3C(=O)CSC3=O)cc2)C1 (stereo not shown),9.15
5,COc1ccc(-c2nc(SCC(=O)NC3CCCCC3)n[nH]2)cc1,-12.3
6,CCN(Cc1ccccc1)C(=O)c1ccccc1C,8.23
7,CN=C1S/C(=C\c2ccc(OCC(=O)OC)c(OC)c2)C(=O)N1C,13.7
8,COc1ccccc1C(=O)Nc1ccc(Cc2ccncc2)cc1,7.7
9,Cc1ccc(C(=O)N/C(=C/c2cccs2)C(=O)N2CCCCC2)cc1,10.6
10,CCn1ccc(C(=O)Nc2ccc3c(c2)CCC3)n1,7.59
11,C1COCCO1.O=C(Nc1cccc2ccccc12)C(=O)C1C(=O)Nc2ccccc21 (stereo not shown),11.7
12,COCn1c(COc2ccccc2)nc2ccccc21,7.09
13,COc1ccc(CN2C(=O)c3cccnc3C2=O)cc1S(=O)(=O)NCc1ccc(C)o1,12.7
14,Oc1ccccc1-c1cncn1Cc1ccccc1,8.6
15,Cc1ccc(S(=O)(=O)[O-])cc1.Cn1cc[n+](C)c1COc1ccc(C=O)cc1,13.9
16,FC(F)Oc1ccc(/C=N/n2c(Cc3ccc(Br)cc3)n[nH]c2=S)cc1,14
17,CCc1c(C)nc2ccc(Br)cc2c1SCCC#N,2.63
18,COc1ccccc1CNCC(O)(c1ccc(F)cc1)c1ccc(F)cc1,-13.7
19,COCC1CCCN(C(=O)c2cc(COc3cncc(Cl)c3)on2)C1 (stereo not shown),18.5
20,CN(CC(=O)Nc1ccccc1Cl)C(=O)CSc1nnc(-c2ccco2)n1C,16.4
21,CC(C)(C)NC(=O)CSc1nncn1NCc1ccccc1,5.49
22,Nc1c(C(=O)N/N=C/c2cccnc2)cnn1-c1ccccc1,9.47
23,COc1ccc(N2CCN(C(=O)c3ccc4c(=O)n5c(nc4c3)CCCCC5)CC2)cc1,-14.9

row,Structure (SMILES),"hERG current change (%, negative = inhibition) at 1uM [%]"
1,O=C(c1cc2cc(Br)ccc2o1)N1CCCC1,7.09
2,CCCn1ncc(C(=O)N(C)C2CCCN(Cc3ccccc3F)C2)c1C (stereo not shown),12.2
3,COc1ccc2nc(SCc3ccccc3C)nc(C)c2c1,6.15
4,CCCOc1ccc(Cn2cnc3ccccc32)cc1,1.77
5,CC(=O)CC(C)(C)n1c[n+](C)nn1.[O-][Cl+3]([O-])([O-])[O-],4.2
6,CCc1ccc2c(c1)cc(CN(C(=S)Nc1ccc(Cl)cc1)C1CC1)c1nnnn12,11.9
7,CC(C)C(C(=O)N1CCN(Cc2ccccc2)CC1)c1ccccc1.Cl (stereo not shown),10
8,Cc1cc(C)nc(NC(=O)CSc2nc3ccccc3s2)n1,8.71
9,CC(=O)c1ccc(NC(=O)c2cccs2)cc1,14.4
10,COC(=O)Cc1ccc(NC(=S)N2CCC(Cc3ccccc3)CC2)cc1,8.98
11,COC(=O)c1cccc(NC(=O)CSc2nnc(C)o2)c1,11.3
12,Cc1ccc(C(=O)NNc2cc(N3CCCC3)nc(N3CCCC3)n2)cc1,-8.37
13,COc1ccc(C(=O)CSc2n[nH]c(N)n2)cc1,10.4
14,CCc1ccc(NC(=O)[C@H](C)NC(=O)C2CCN(C(=O)[C@@H](NC(=O)OC(C)(C)C)C(C)C)CC2)cc1,4.94
15,CC(=O)Nc1ccccc1OCc1nnc(-c2ccc(Cl)cc2)o1,0.667
16,CCN1C(=O)/C(=C\N2CCCCCC2)SC1=S,12.3
17,CC1CCCCC1NC(=O)CN1C(=O)CSc2cc(S(=O)(=O)N3CCCCCC3)ccc21 (stereo not shown),7.3
18,CC(C)(C)C1CCc2onc(C(=O)Nc3cccc(O)c3)c2C1 (stereo not shown),11.6
19,O=C(Nc1ccc(N2CCN(Cc3ccccc3)CC2)cc1)c1ccccc1[N+](=O)[O-],7.68
20,O=C(NC1=NCCS1)c1ccc(Br)s1,-13.2
21,CCc1nnc(NC(=O)Cc2cccs2)s1,2.4
22,Nc1cc(=O)[nH]c(SCC(=O)Nc2cccnc2Cl)n1,9.3
23,COc1ccc(-n2nnc3c(=O)n(CC(=O)OCc4ccccc4)cnc32)cc1,4.05

row,Structure (SMILES),"hERG current change (%, negative = inhibition) at 1uM [%]"
1,O=C(Nc1cc(S(=O)(=O)N2CCCCCC2)ccc1OCC(F)(F)F)C1CCC1,0.79
2,Cc1ccc(S(=O)(=O)Cc2ccc(C(=O)N3CCCC3)o2)cc1,8.97
3,CCOc1c(Br)cc(C(N)=O)cc1OCc1ccccc1,12.1
4,Cc1ccc(C(=O)NCCCNC(=O)COc2ccc(C)c(C)c2)cn1,8.8
5,COc1cc(Cl)c(C)cc1NC(=O)CC1SC(N2CCOCC2)=NC1=O (stereo not shown),4.33
6,CCC(C)(C)NC(=O)C(c1ccc(C)o1)N(Cc1ccc2c(c1)OCO2)C(=O)c1snc(C(N)=O)c1N (stereo not shown),7.31
7,Cc1ccc([N+](=O)[O-])cc1-c1ccc(/C=N/NC(=O)CN2CCOCC2)o1,-1.88
8,COC(=O)C1=NN(C(=O)c2ccccc2)C(C)(O)C1 (stereo not shown),8.16
9,CCSc1nnc(NC(=O)C2(C)Cc3ccccc3C(=O)O2)s1 (stereo not shown),0.696
10,CCn1c(/C=C/Nc2ccccc2)[n+](CC)c2cc(Cl)c(Cl)cc21.[I-],-87.2
11,CC(=O)c1cccc(NC(=O)CSc2nc(=O)n(Cc3ccccn3)c3c2CCC3)c1,17.3
12,CS(=O)(=O)Nc1ccccc1C(=O)Nc1ccccc1C(=O)N1CCCC1,12.2
13,COc1cccc(NC(=O)CSc2nnc(-c3cc(C)n(-c4ccccc4)c3C)o2)c1,10.4
14,CC1CCCC(C)N1CC(O)COc1c(F)cc(Br)cc1F.Cl (stereo not shown),-20.6
15,CC1CCCCC1NC(=O)c1nn(C)c2c1CS(=O)(=O)c1ccccc1-2 (stereo not shown),17.8
16,CCc1ccc(NC(=O)Cc2c(C(=O)O)n(C)c3ccccc23)cc1,8.88
17,O=c1[nH]c2ccccc2n1Cc1ccc(Cl)cc1,7.33
18,CN(C(=O)CCOc1ccccc1)c1c(N)n(Cc2ccccc2)c(=O)[nH]c1=O,-2.83
19,CC(C)n1nnnc1SCC(=O)Nc1ccc2c(c1)OCCO2,9.45
20,Cn1c(=O)c2c(nc(-n3ccnc3)n2C)n(C)c1=O,9.17
21,CCOC(=O)C(C)On1c(-n2nc(C)cc2C)nc2ccccc2c1=O (stereo not shown),15.8
22,Cc1ccnc(NS(=O)(=O)c2ccc(NC(=O)/C=C/c3cccs3)cc2)n1,-1.69
23,COC(=O)C1=C(c2cccc(OC)c2OC)C[C@@H]2CC[C@H]1N2C(=O)NCc1ccccc1,7.51

row,Structure (SMILES),"hERG current change (%, negative = inhibition) at 1uM [%]"
1,C/C(=N/NC(=O)c1ccccc1)C(=O)O,6.05
2,C=CCNC(=S)Nc1nc2c(cc1C(=O)OCC)CCCC2,7.39
3,CCc1noc(C)c1C(=O)OCC(=O)NC(=O)c1ccccc1OC,5.75
4,CCOc1ccc(N2CSC3=C(C#N)C(c4ccco4)CC(=O)N3C2)cc1 (stereo not shown),-4.38
5,Cc1cc(NC(=O)CSc2nnc(-c3ccc([N+](=O)[O-])cc3)o2)no1,11.2
6,Cc1cc(Cl)ccc1NC(=S)NCc1cccs1,10.6
7,CC(=O)c1ccc(NC(=O)Cn2cnc(S(=O)(=O)N3CCC(C)CC3)c2)cc1,16
8,COC(=O)c1cc(=O)n(CCc2ccc(OC)c(OC)c2)c(=Nc2ccc(F)c(Cl)c2)s1,4.37
9,COc1ccc(-c2cc(N)n(S(=O)(=O)Cc3ccccc3)n2)c(OC)c1,-4.34
10,CC(C)(CSc1ccccn1)NS(=O)(=O)c1ccc(Cl)cc1,3.44
11,Cc1ccccc1NC(=O)CN1C(=O)CSc2ccc(S(=O)(=O)N3CCCCC3)cc21,17.2
12,Cc1ccc(S(=O)(=O)c2nc(-c3ccco3)oc2SCC(N)=O)cc1,1.15
13,CN(C)CP(=O)(Nc1ccccc1)N(C)C (stereo not shown),10.9
14,Cc1[nH]c(=O)[nH]c(=O)c1S(=O)(=O)Nc1ccc(F)cc1F,15.4
15,Cc1ccc(S(=O)(=O)N2CCOCC2)cc1C(=O)NC(=S)N(Cc1ccccc1)C(C)C,3.95
16,CCc1cc(C(=O)OC)c(NC(=O)CC2SC(N)=NC2=O)s1 (stereo not shown),7.42
17,COc1ccc2c(c1)c(C(=O)CN1CCCCC1)c(C)n2C,11
18,O=C1C2C3CC(C(Br)C3Br)C2C(=O)N1c1ccccn1 (stereo not shown),9.57
19,COc1ccc2nc(NC(=O)C(NS(=O)(=O)c3cccs3)C(C)C)sc2c1 (stereo not shown),14
20,O=c1cc(CNc2cc(Cl)ccc2Cl)nc2sccn12,9.26
21,COc1ccc(NC(C)=O)cc1NC(=O)CN1CCN(c2ccccn2)CC1,14.3
22,NC1=NC[C@H](Cc2ccc(O)cc2)N1CCc1cc(C(F)(F)F)cc(C(F)(F)F)c1,14.2
